Laboratory results as given in PubChem BioAssay AID1479 (National Center for Advancing Translational Sciences (NCATS), 2009).
The campaign covered roughly 280,000 compounds. About 820 (0.29%) were called active. The shares of active, inactive and inconclusive entries below differ from those in the screen. The call rests on the fitted dose curve; in most records, active means well fitted curve in either direction with a large enough effect; inconclusive means small, poorly fitted or top-dose-only effect; inactive means flat fitted curve, though single readings scatter. No potency is given beside an inconclusive call; the fits are too rough.

Assay: Total Fluorescence Counterscreen for Inhibitors of the Interaction of Thyroid Hormone Receptor and Steroid Receptor Coregulator 2
Conditions: TRb/SRC2 Texas Red total fluorescence interference; series mostly up to 106 µM; fluorescence change, negative = quenching: at the top concentration
Procedure, shortened: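 Human TRb ligand-binding domain at 0.6 uM with 20 nM Texas Red SRC2 peptide in Tris buffer containing 1 uM T3 and 5% DMSO, incubated with compound 5 h at ambient temperature. Total fluorescence (555/632 nm) calculated as parallel + 2 × perpendicular.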
On the % scale 0 is the no-effect control and ±100 the full control effect; potency means the concentration at half of the fitted maximal effect; tags describe the fitted curve by direction and shape or compound fluorescence and quenching.

Row | Structure (SMILES) | Potency | fluorescence change, negative = quenching
1 | Cc1ccc(C(C)C)c(OCc2ccc(C(=O)Nc3ccc(S(N)(=O)=O)cc3C)o2)c1 | inconclusive [falling, partial curve, poor fit] | –
2 | Cn1nnnc1SCCCNCc1ccc(-c2cccc(Cl)c2)o1 | inconclusive [falling, partial curve, poor fit] | –
3 | COc1ccccc1C1CC(c2cccs2)=Nc2ccccc2S1 (centres undefined) | – | inactive: -4.38%
4 | N#Cc1ccccc1NC(=O)c1cc2c(=O)n3ccccc3nc2s1 | inconclusive [quencher, partial curve] | –
5 | COc1c(O)c(O)c2cc(OC)c3c(OC)cc(=O)c4c5c(=O)c(OC)c(C(C)=O)c6c5c(c1CC=6C)c2c34 | inconclusive [fluorescent, partial curve] | –
6 | COc1ccc(NS(=O)(=O)c2cc(NC(=O)C3CCCO3)ccc2N2CCCCC2)cc1 (centres undefined) | – | inactive: -2.37%
7 | CCOc1ccccc1CNC(=O)c1cc2c(=O)n(Cc3ccccc3)ccc2nc1C | inconclusive [falling, partial curve, poor fit] | –
8 | CCc1ccccc1NC(=O)Cn1c(=O)c2cccn2c2ccc(F)cc21 | inconclusive [falling, partial curve, poor fit] | –
9 | COc1cc(-c2coc3cc(OC)c(OC)c(OC)c3c2=O)cc(OC)c1OC | – | inactive: -0.299%
10 | Cc1ccc(Nc2nnc(-c3ccc(C)c(S(=O)(=O)N4CCN(C)CC4)c3)c3ccccc23)c(C)c1 | – | inactive: -1.09%
11 | c1ccc(Cc2nnc(SCc3nc(-c4cccs4)no3)n2-c2ccccc2)cc1 | inconclusive [quencher, full curve] | –
12 | Cc1ccccc1N1CCN(S(=O)(=O)c2nnc(NC(=O)c3ccccc3)s2)CC1 | inconclusive [falling, full curve, poor fit] | –
13 | Nc1ccc(-c2nc3ccc(-c4nc5ccc(N)cc5[nH]4)cc3[nH]2)cc1 | active: 44.7 µM [quencher] | –
14 | Cc1cc(=O)n2[nH]c(NCc3ccc(F)cc3)nc2n1 | inconclusive [falling, full curve, poor fit] | –
15 | O=C(CCCn1c(=O)c2cccn2c2ccc(F)cc21)NCCc1ccccc1 | inconclusive [falling, full curve, poor fit] | –
16 | Cc1ccc(NS(=O)(=O)c2ccc3[nH]c4c(c3c2)CCCC4)c(C)c1 | inconclusive [quencher, full curve] | –
17 | Cc1c(Cl)c(-c2n[nH]c(=S)n2-c2ccccc2)nn1C | inconclusive [falling, full curve, poor fit] | –
18 | COc1ccc(CNC(=O)c2cc(-c3cccs3)nc3ccccc23)c(OC)c1 | active: 0.0224 µM [quencher] | –
19 | CN(C)c1ccc(C=C2C(=O)OC(C)(C)OC2=O)cc1 | – | inactive: 0.353%
20 | CCCCn1cc(S(=O)(=O)c2ccc(CC)cc2)c(=O)c2cc(F)c(N3CCCC(C)C3)cc21 (centres undefined) | active: 89.1 µM [quencher] | –
21 | CC(C)(C)C(=O)Cn1c(=O)n(CCCCCC(=O)NCc2ccc3c(c2)OCO3)c(=O)c2sccc21 | inconclusive [falling, full curve, poor fit] | –
22 | CCCN1C(=O)/C(=C/c2ccco2)SC1=Nc1ccc(OC)cc1 | inconclusive [quencher, partial curve] | –

Row | Structure (SMILES) | Potency | fluorescence change, negative = quenching
23 | Cc1cc(C)n(-c2ccc(C(=O)OCC(=O)Nc3ccc(Cl)cc3[N+](=O)[O-])cc2)n1 | inconclusive [falling, partial curve, poor fit] | –
24 | CCN1CCc2nc(N)sc2C1 | – | inactive: 0.99%
25 | CCOc1ccc(C(=O)Nc2ccc3nn(-c4ccc(OC)c(Cl)c4)nc3c2)cc1 | inconclusive [falling, full curve, poor fit] | –
26 | COCCCn1c(-c2ccco2)nc2ccccc2c1=O | – | inactive: -4.91%
27 | CC(=O)OCC(=O)NCC(=O)c1c[nH]c2ccccc12 | – | inactive: -1.61%
28 | CC(C)CC(=O)n1nc(-c2cccnc2)nc1NCc1ccc(F)cc1 | active: 0.0891 µM [quencher] | –
29 | Cc1ccccc1NC(=O)c1cccc2nc3ccccc3nc12 | – | inactive: -7.55%
30 | Cc1ccc(CNC(=O)CCc2c(C)nc3nc(C)nn3c2C)cc1 | inconclusive [quencher, partial curve] | –
31 | N#Cc1c(C(F)(F)F)cc(-c2cccs2)nc1SCC(=O)Nc1ccccc1F | inconclusive [falling, partial curve, poor fit] | –
32 | C=CCc1ccccc1OCc1nc2ccccc2n1CC | inconclusive [falling, full curve, poor fit] | –
33 | c1ccc(OCCSc2nc3ccccc3[nH]2)cc1 | – | inactive: -0.26%
34 | O=C(Cn1ccn(-c2ccc(F)c(F)c2)c(=O)c1=O)NCCc1ccccc1 | inconclusive [quencher, partial curve] | –
35 | Cc1cc(C)cc(NC(=O)c2cc(S(=O)(=O)N3CCC(C)CC3)cn2C)c1 | inconclusive [falling, full curve, poor fit] | –
36 | O=C1C(c2[nH]c3ccc(S(=O)(=O)O)cc3c2O)=Nc2ccc(S(=O)(=O)O)cc21 | inconclusive [quencher, partial curve] | –
37 | Cc1cccc(NC(=O)COc2ccc(-c3nn(C)c(=O)c4ccccc34)cc2)c1 | inconclusive [falling, partial curve, poor fit] | –
38 | O=[N+]([O-])c1ccc(N=Nc2ccc(O)cc2O)cc1 | – | inactive: -15.9%
39 | O=C(Cn1cc(S(=O)(=O)Cc2cccc(Cl)c2)c2ccccc21)Nc1ccccc1Cl | inconclusive [quencher, full curve] | –
40 | CC(CNC(=O)c1nnc(Cc2ccc(F)cc2)o1)c1ccccc1 (centres undefined) | inconclusive [falling, full curve, poor fit] | –
41 | Cc1cccc(NC(=O)CCC(=O)N/N=C/c2cc([N+](=O)[O-])ccc2O)c1 | inconclusive [falling, full curve, poor fit] | –
42 | COc1ccc(/C=C/C(=O)CC(=O)/C=C/c2cccc(O)c2OC)cc1O | inconclusive [quencher, partial curve] | –
43 | O=C(NCc1cccc(Br)c1)c1ccc(NC(=O)N2CCCCc3ccccc32)cc1 | inconclusive [quencher, full curve] | –
44 | O=C(COCc1cc(-c2cccs2)on1)N1CCN(c2cccc(Cl)c2)CC1 | inconclusive [quencher, full curve] | –

Row | Structure (SMILES) | Potency | fluorescence change, negative = quenching
45 | Cc1c(Cl)cccc1NC(=O)C1CCN(c2ncnc3c2nc2n3CCCCC2)CC1 | active: 20 µM [quencher] | –
46 | COc1ccc(C)cc1NS(=O)(=O)c1c(C(=O)N2CCCCCC2)c(C)n(C)c1C | inconclusive [falling, partial curve, poor fit] | –
47 | COc1ccc(Cn2cc(S(=O)(=O)c3ccc(Cl)cc3)c(=O)c3cc4c(cc32)OCO4)cc1 | – | inactive: 0.767%
48 | CCc1ccc(-n2c(SCc3ccccc3Cl)nc3[nH]ncc3c2=O)cc1 | inconclusive [falling, partial curve, poor fit] | –
49 | CN(C)C(C)(C)C#CCC(c1ccccc1)c1ccccc1 | inconclusive [falling, full curve, poor fit] | –
50 | Cc1oc(-c2ccc(Cl)cc2)nc1CSc1nc2ncccc2[nH]1 | inconclusive [quencher, full curve] | –
51 | O=C1NC(=S)S/C1=C\c1ccc(SCc2ccccc2)o1 | – | inactive: -13.1%
52 | COc1ccc(C2=NN(CCC(=O)NCCc3ccccc3)C(=O)CC2)cc1 | inconclusive [falling, partial curve, poor fit] | –
53 | CN(C)c1ccc(CNC(=O)CCCN2C(=O)CCn3nc(-c4cn(C)c5ccccc45)cc32)cc1 | inconclusive [falling, full curve, poor fit] | –
54 | Cc1ccc(C)c(CN2C(=O)c3ccccc3S(=O)(=O)c3ccc(C(=O)NCCc4ccc(Cl)cc4)cc32)c1 | inconclusive [falling, full curve, poor fit] | –
55 | Cc1ccc(CCNc2nc3ccccc3c3nc(-c4cccnc4)nn23)cc1 | inconclusive [quencher, full curve] | –
56 | COc1ccc(C(=O)NCc2nc(-c3cccc(C)c3)no2)cc1OC | inconclusive [falling, partial curve, poor fit] | –
57 | CCc1ccc(NC(=O)Cn2c(=O)nc(-c3ccccc3F)c3cc(Cl)ccc32)cc1 | – | inactive: -2.82%
58 | Cc1cccc(OCC(=O)Nc2ccc(S(=O)(=O)Nc3onc(C)c3C)cc2)c1C | inconclusive [falling, full curve, poor fit] | –
59 | CCNC(=S)Nc1cc(OCC)c(NC(=O)c2cccs2)cc1OCC | inconclusive [quencher, full curve] | –
60 | C[C@@H]1[C@H](C)CC[C@@]2(C(=O)O)CC[C@]3(C)C(=CC[C@H]4[C@@]5(C)CC[C@@H](O)C(C)(C)[C@@H]5CC[C@@]43C)[C@@H]12 | inconclusive [falling, partial curve, poor fit] | –
61 | COC(=O)c1sccc1S(=O)(=O)N(CC(=O)Nc1ccccc1C)c1ccc(Cl)cc1 | – | inactive: -3.6%
62 | COc1cc(/C=C(\C#N)c2nc3ccccc3s2)cc([N+](=O)[O-])c1O | active: 25.1 µM [quencher] | –
63 | CCn1c(CSc2nnc(-c3ccncc3)n2C)nc2cc(C(=O)O)ccc21 | active: 44.7 µM [fluorescent] | –
64 | O=C(OCC(=O)c1ccc(Cl)s1)c1ccccn1 | inconclusive [falling, partial curve, poor fit] | –
